Among the data in PubChem BioAssay AID488969 (Vanderbilt High Throughput Screening Facility, 2010) are z-score values, retold here.

The full ranking holds about 110,000 compounds; the median of “z-score” is about -0.1, and the highest 2% start at about 2. This is one part of the list.

In the test the target is Metabotropic glutamate receptor 8 (Rattus norvegicus) (UniProt P70579). Put plainly: rat mGluR8 modulators via GIRK flux, primary screen, cell-based, thallium flux, HTS (AID 488969). The note with it: HEK293 rat mGluR8, GIRK (G protein-gated inwardly rectifying potassium channel) thallium flux, FluoZin2; at 10 µM; stronger effect = higher value; submaximal glutamate (EC20) added with thallium.
Chain of UniProt P70579 (P70579 whole entry, looked up): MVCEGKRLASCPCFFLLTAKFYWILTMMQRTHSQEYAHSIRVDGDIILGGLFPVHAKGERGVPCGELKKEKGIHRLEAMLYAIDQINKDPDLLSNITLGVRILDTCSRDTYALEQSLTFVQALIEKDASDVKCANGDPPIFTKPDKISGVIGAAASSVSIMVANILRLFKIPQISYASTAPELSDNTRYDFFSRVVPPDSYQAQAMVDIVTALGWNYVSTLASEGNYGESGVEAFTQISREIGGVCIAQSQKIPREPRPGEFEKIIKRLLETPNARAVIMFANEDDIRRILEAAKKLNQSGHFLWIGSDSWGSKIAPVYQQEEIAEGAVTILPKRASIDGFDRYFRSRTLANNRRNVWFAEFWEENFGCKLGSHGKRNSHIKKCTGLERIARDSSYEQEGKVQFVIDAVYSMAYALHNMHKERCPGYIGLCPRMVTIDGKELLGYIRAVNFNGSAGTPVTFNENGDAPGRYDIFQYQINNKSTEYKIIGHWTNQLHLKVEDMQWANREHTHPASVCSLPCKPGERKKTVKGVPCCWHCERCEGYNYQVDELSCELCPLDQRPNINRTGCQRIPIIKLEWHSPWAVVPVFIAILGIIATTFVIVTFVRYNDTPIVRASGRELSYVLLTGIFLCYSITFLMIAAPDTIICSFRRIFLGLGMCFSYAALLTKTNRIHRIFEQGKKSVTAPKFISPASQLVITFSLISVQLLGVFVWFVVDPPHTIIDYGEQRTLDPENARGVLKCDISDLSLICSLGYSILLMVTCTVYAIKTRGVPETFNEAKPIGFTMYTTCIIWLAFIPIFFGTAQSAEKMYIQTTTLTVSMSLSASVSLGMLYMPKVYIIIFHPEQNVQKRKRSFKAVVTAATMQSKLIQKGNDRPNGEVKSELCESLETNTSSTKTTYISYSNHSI
As for `O=C(OCCN1C(=O)c2ccccc2C1=O)C1CCN(S(=O)(=O)c2cccs2)CC1`, the z-score is -0.82.
`Nn1c(SC/C=C/c2ccccc2)nnc1-c1cccnc1` registered a z-score of 0.773.
Compound `C=CCNS(=O)(=O)c1cccc2cc(C(=O)O)c(O)cc12` registered a z-score of -0.00419.
Regarding `CC1CC2=C(C(=O)O1)C(C)Nc1ccccc1N2` (centres undefined), the z-score is -0.08.
Under `Cc1c(NC(=O)c2cnn3cccnc23)c(=O)n(-c2ccccc2)n1C` stands -0.106; under `Cc1ccccc1-n1cnnc1SCC(=O)N1CCN(c2ccccc2)CC1`, -0.0442; under `COc1ccc(OC)c(NC(=O)C2CCN(Cc3cnn(-c4ccccc4)c3-n3cccc3)CC2)c1`, -0.109.
On to `CCOc1ccc(NC(=O)c2ccccc2NC(=O)CN(C)CC(=O)Nc2ccc(C)cc2)cc1`, for which the z-score was -0.391.
In the case of `O=S(=O)(Nc1ccc(N2CCCCC2)cc1)c1cccc2cccnc12`, the z-score is -0.51.
For `O=C(/C=C/c1ccccc1)c1ccoc1`, the z-score came to 0.277.
`CC1(C)CC(CC(=O)Nc2ccc([N+](=O)[O-])cc2)C(=O)O1` (centres undefined) displayed a z-score of -0.134.
Then `CN(C)S(=O)(=O)c1cccc(NC(=O)Cn2cnc3ccccc3c2=O)c1`, with 0.0344; and `CCCCN(C(=O)c1ccc(Cl)cc1)C1CC2CCC(C1)N2C` (centres undefined), with -1.81.
Under `CCN1C(=O)c2cccc3c(S(=O)(=O)NCCCN4CCOCC4)ccc1c23` stands -0.0858; under `Cc1cc(O)c(/C=N/Nc2ccccc2Cl)c(=O)o1`, -0.357.
As for `CCOC(=O)c1cc2sc(C)cc2n1CC(=O)N1CCc2ccccc21`, the z-score stood at 0.0347.
Then `N#Cc1cc(-c2ccccc2)cnc1Sc1ccccc1`, with 0.108; and `Cc1ccc(C(=O)COC(=O)c2cccc(NC(=O)c3ccc([N+](=O)[O-])cc3[N+](=O)[O-])c2)cc1`, with 0.41.
With `Fc1ccccc1CSc1nncn1NC/C=C/c1ccccc1`, the z-score was found to be 0.0136.
Turning to `N#Cc1c(N)n[nH]c1CCCN`, the z-score amounted to 0.49.
As to `Cc1cc(/C=N/NC(=O)C(=O)N2CCCC2)c(C)n1-c1cccc(Br)c1`, the z-score is -0.272.
Then `COc1ccc(-c2nnc(SCC(=O)NNC(=O)Cc3ccccc3)n2C)cc1OC`, with -0.209.
`COC(=O)c1c(C)nc2ccccc2c1-c1ccccc1` yielded a z-score of -0.899.
On to `CCOCCCNC(=O)C(c1ccc(Cl)cc1)N1CCC2(CC1)OCCO2` (centres undefined), for which the z-score came to 0.279.
Take `Cc1ccc(Cn2c(NS(=O)(=O)c3ccccc3)nc3ccccc32)cc1`: the z-score is -0.112.
`O=C(NCc1ccc2c(c1)OCO2)c1ccc(-c2ccc(Cl)cc2)o1` showed a z-score of -0.182.
Compound `C=CCSc1nc2c(cc1C#N)CCC2` showed a z-score of -0.145.
Then `CN(c1ccccc1)c1nc(N)c(C#N)c(CC#N)c1C#N`, with 0.000795; and `Cn1c(Cn2nnc(-c3ccccc3)n2)nnc1SCc1ccccc1Cl`, with -1.29; and `CCS(=O)(=O)N1CCN(Cc2ccc([N+](=O)[O-])cc2)CC1`, with -0.173.
For the compound `CC(=O)N(C)c1ccc(NC(=O)c2cnn(C)c2)cc1`, the z-score is -0.257.
Compound `O=S(=O)(NCCc1ccncc1)c1ccccc1` returned a z-score of -0.229.
`CN(C)CCNC(=O)c1ccc(CS(=O)(=O)c2c(Cl)cccc2Cl)o1` returned a z-score of -0.0595.
Then `Cc1ccc(Cc2c(C)nc3nc(SCC(=O)NCCN4CCOCC4)nn3c2C)cc1`, with 0.396; and `CC(C(=O)NC(=O)NC1CCCCC1)N1CCN(c2ccccn2)CC1` (centres undefined), with 0.0805.
`CCOC(=O)/C(C#N)=C/c1ccc(OCC(=O)Nc2ccccc2)c(OC)c1` gave a z-score of 0.0579.
`CCc1nc(SCC(=O)Nc2cc(C)on2)c2c(=O)n(C)c(=O)n(C)c2n1`: the z-score is 1.33.
Then `O=C(C1CCN(S(=O)(=O)c2cccc3cccnc23)CC1)N1CCN(c2ccccn2)CC1`, with -0.257; and `CC(C)C(=O)Nc1ccc(C(=O)N2CCN(C(=O)c3ccco3)CC2)cc1`, with 0.196.
Take `CCOc1ccccc1NC(=O)C1CCN(S(=O)(=O)c2c(C)nn(C)c2C)CC1`: the z-score was -0.644.
`Cc1nn(CCC(=O)NNC(=S)Nc2cccc(Cl)c2)c(C)c1[N+](=O)[O-]` displayed a z-score of 0.117.
`COc1ccc(S(=O)(=O)n2ccc(C(C)Oc3ccc(-c4ccccc4)c(F)c3)n2)cc1` (centres undefined) displayed a z-score of 0.0679.
In turn, `O=C(CSc1ccc(Cl)cc1)Nc1ccc(N2CCN(C(=O)c3ccc(Cl)cc3)CC2)cc1` displayed a z-score of -0.126.
`Cc1ccc(NC(=O)/C=C/c2cccc(C(F)(F)F)c2)cc1` came in with a z-score of -0.0132.
With `COC(=O)c1sccc1NC(=O)c1ccoc1C`, the z-score is -0.194.
In turn, `CC1Cc2cc(/C(O)=C3/C(=O)C(=O)N(CC4CCCO4)C3c3ccco3)ccc2O1` (centres undefined) displayed a z-score of -0.183.
With `COc1ccc(NC2c3ccccc3C(=O)N2c2ccccn2)cc1Cl` (centres undefined), the z-score is -0.839.
Compound `CC(=O)NS(=O)(=O)c1ccc(NC(=S)NC(=O)C(C)(C)C)cc1` came in with a z-score of -0.209.
As for `CC(C)CC(=O)Nc1ccc(-c2nc3ccccc3c(=O)o2)cc1`, the z-score turned out to be 0.41.
The compound `CC1CCN(c2ccccc2NC(=O)c2ccc(F)cc2)CC1` showed a z-score of -0.52.
In the case of `CCC(=O)Nc1nc2ccc(NC(C)=O)cc2s1`, the z-score was -0.322.
`COc1cccc(C2CC(c3ccccc3Cl)Nc3ncnn32)c1` (centres undefined) showed a z-score of -0.106.
The compound `CCOC(=O)c1sc(NC(=O)CSc2nnc(Cc3ccccc3)o2)c(C#N)c1C` had a z-score of -0.503.
Take `COc1ccc(-n2c(-c3cccc(OC)c3)nc(=S)c3c2CCCC3)cc1`: the z-score is -0.329.
As to `O=C(COC(=O)c1ccc2[nH]c3c(c2c1)CCCC3)Nc1ccccc1`, the z-score was 0.042.
Regarding `COCCNC(=S)N/N=C(\C)c1ccc(-n2ccnc2)cc1`, the z-score was -0.146.
`N#Cc1ccc(Oc2ccc(/C=N/O)cn2)cc1`: the z-score was -0.177.
Take `CC1(C)C(=O)Nc2ccccc2N1C(=O)CSc1nnc2ccccn12`: the z-score is 0.281.
In the case of `O=C(CN1CCN(Cc2ccccc2Cl)CC1)N/N=C/C=C/c1ccccc1[N+](=O)[O-]`, the z-score worked out at 0.12.
In turn, `O=S1(=O)N=C(Nc2nc3c(s2)CCCC3)c2ccccc21` came in with a z-score of 0.105.
In the case of `Oc1ccccc1C1=NOC(O)(C(F)F)C1` (centres undefined), the z-score was 1.11.
Compound `CCSc1nnc(NC(=O)CSc2nnc(CNC(=O)c3ccccc3F)o2)s1` came in with a z-score of -0.0692.
Then `COc1ccc(CN(C2CCCC2)S(=O)(=O)c2ccc(-n3cnnn3)cc2)cc1`, with -1.17; and `COc1ccc(NC(=O)C(NC(=O)c2ccccc2)C(C)C)cc1` (centres undefined), with 0.116; and `Cc1nc(NC(=O)c2ccco2)sc1-c1csc(Nc2ccc(Cl)cc2)n1`, with 0.0558.
Compound `O=C1Nc2ccccc2C12OC1CCCCC1O2` (centres undefined) gave a z-score of -0.0948.
`CN(/N=C/c1ccncc1)c1cnn(-c2ccc(F)c(Cl)c2)c(=O)c1Cl` gave a z-score of -0.359.
For `Cc1ccc(S(=O)(=O)Nc2ccccc2-c2ccccc2)cc1`, the z-score is 0.418.
For `Cc1ccc(-c2c3c(=O)n(C)c(=O)n(C)c3c3nnc4ccccc4n23)cc1`, the z-score is -0.843.
For `O=C(Nc1cccc(NC(=O)c2ccc(Br)o2)n1)c1ccc(Br)o1`, the z-score was -0.11.
`CN1C(=O)NC2(O)C(=O)c3ccccc3C12O` (centres undefined) registered a z-score of 0.246.
Compound `CC(NC(=O)C(C(=O)c1cccc([N+](=O)[O-])c1)n1cc(Cl)ccc1=O)c1ccccc1` (centres undefined) displayed a z-score of 0.926.
In turn, `Cc1ccc(NC(=O)c2csnn2)c(C)c1` came in with a z-score of 0.804.
`CCc1nc2ccccc2c(C(=O)OCc2nnc(-c3ccccc3)o2)c1C` registered a z-score of -0.557.
In turn, `O=C(CCC(=O)Nc1ccc(Oc2ccccc2)cc1)NCCO` gave a z-score of -0.219.
Then `O=C(NCCSc1ccccc1)c1cncc(Br)c1`, with 0.24; and `CCC(=O)Nc1c2c(nc3c1CCC3)CCCC2`, with -0.351; and `O=C(CSc1nnc(-c2ccc(Br)cc2)n1CCc1ccccc1)NC1CCS(=O)(=O)C1` (centres undefined), with -0.076.
Then `O=C(C1CCCN(Cc2ccccc2)C1)N1CCc2ccccc2C1` (centres undefined), with 0.595; and `CC1CCCCN1Cc1nc2c(c(=O)n(C)c(=O)n2C)n1CCc1ccccc1` (centres undefined), with -0.817; and `CC(=O)Cn1c(N2CCC(Cc3ccccc3)CC2)nc2c1c(=O)[nH]c(=O)n2C`, with -0.571.
Turning to `CCOc1ccc(CC(=O)NCc2cn3c(C)csc3n2)cc1`, the z-score was -0.457.
`Cc1c(Cl)cccc1N=Cc1ccc([N+](=O)[O-])s1` displayed a z-score of -0.206.
In turn, `Cc1c(NC(=S)NC(NC(=O)C(C)(C)C)C(Cl)(Cl)Cl)c(=O)n(-c2ccccc2)n1C` (centres undefined) returned a z-score of -0.237.
In turn, `Cc1c(NC(=O)C(C)c2ccc(CC(C)C)cc2)c(=O)n(-c2ccccc2)n1C` (centres undefined) showed a z-score of -0.175.
`CC(=O)c1c(OCC(=O)O)ccc2c(C)cc(=O)oc12` yielded a z-score of 0.443.
`COc1ccc(NC(=O)C2CCC(=O)N2S(=O)(=O)c2ccc(C)cc2)c(OC)c1` (centres undefined) gave a z-score of 0.0154.
Under `O=S(=O)(Nc1ccc(F)cc1)N1CCCCCC1` stands 0.113; under `Cc1ccc(NC(=O)c2ccccc2N(C)S(C)(=O)=O)cc1C`, -0.0366; under `Cc1ccccc1OCC(=O)NNC(=O)c1ccc(-c2ccccc2)cc1`, 0.207.
In turn, `Nc1nnc(Cc2ccccc2)s1` had a z-score of -0.122.
Compound `CCOC(=O)C1C2C=CC3(CN(CCc4ccccc4)C(=O)C13)O2` (centres undefined) yielded a z-score of -0.0471.
With `O=C(O)C1CC=CCC1C(=O)NCc1cn2ccccc2n1` (centres undefined), the z-score was -0.161.
Compound `O=c1cc(N2CCC3(CC2)OCCO3)[nH]c(=O)n1-c1ccc(Br)cc1` registered a z-score of 0.00229.
As to `CCC(C)NS(=O)(=O)c1ccc(OCC(=O)Nc2ccc3c(c2)OCO3)cc1` (centres undefined), the z-score was determined as 1.04.
With `CCOc1ccc2nc(N3CCC(C(=O)N4CCN(C5CCCCC5)CC4)CC3)sc2c1`, the z-score stood at 0.23.
`C#CCn1c(=NC(=O)CN2C(=O)CCC2=O)sc2cccc(C)c21` returned a z-score of -0.276.
In turn, `COCc1cc(/C=N\NC(=O)COc2ccc(Cl)cc2)ccc1OC` had a z-score of -0.355.
`Cc1nn(CC(=O)NCCc2ccc(Cl)cc2Cl)c(C)c1[N+](=O)[O-]`: the z-score is -0.67.
In turn, `O=C(CSc1nnc2ccccn12)N1CCOCC1` had a z-score of 0.286.
Turning to `CCOc1cc(-c2nc(-c3ccc(C)nc3OC)no2)cc(OCC)c1OCC`, the z-score is -0.11.
`Cc1ccc(Nc2nc(N)nc(CC#N)n2)cc1` gave a z-score of 0.115.
Consider `NS(=O)(=O)c1ccc(NC(=O)CSc2nnc(COc3ccccc3Cl)n2C2CC2)cc1`, for which the z-score turned out to be 0.288.
`Cc1ccc(C(=O)OCC(=O)Nc2sc3c(c2C#N)CCCC3)cc1NC(=O)c1ccco1` came in with a z-score of 2.03.
Under `CC(=O)c1c(C)[nH]c(C(=O)CSc2nc3ccccc3n2C)c1C` stands 0.0771.
Turning to `Cc1cccc(OCCCC(=O)Nc2ccc(N3CCCCC3)cc2)c1C`, the z-score was determined as 0.0131.
Turning to `CCC(=O)NS(=O)(=O)c1cccnc1Nc1ccccc1Cl`, the z-score is -0.483.
Consider `CC(CCc1ccco1)NC(=O)c1cc2c(-c3ccccc3F)nn(C)c2s1` (centres undefined), for which the z-score is -0.263.
The compound `CCC12CN(S(=O)(=O)c3ccc(C)cc3)CC(CC)(CN(S(=O)(=O)c3ccc(C)cc3)C1)C2=O` displayed a z-score of -0.0813.
